PubChem BioAssay AID686978 (National Center for Advancing Translational Sciences (NCATS), 2013)
The whole screen tested about 420,000 compounds, of which about 64,000 (15%) were called active. The inconclusive results got no clear call from the source; some entries with a clear call stand among them for comparison. The call rests on the fitted dose curve; in most records, active means well fitted inhibition curve with a large enough effect; inconclusive means small, poorly fitted or top-dose-only effect; inactive means flat fitted curve, though single readings scatter. Potencies of inconclusive entries are left out as doubtful fits.

Assay: qHTS for Inhibitors of human tyrosyl-DNA phosphodiesterase 1 (TDP1): qHTS in cells in absence of CPT; further: nearly all actives have a fitted effect of over 55% in size
Conditions: DT40 Tdp1-/- hTDP1 cells, no CPT, ATP luminescence, 48 h; activity change, negative = growth inhibition: at 46.2 µM (top of the series) unless noted
In short: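 No-CPT arm: Tdp1-/-;hTDP1 DT40 cells (400/well) plus compounds, incubated ≥48 hr at 37 °C. Readout CellTiter-Glo luminescence.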
On the % scale 0 is the no-effect control and ±100 the full control effect; potency means the concentration at half of the fitted maximal effect; tags describe the fitted curve by direction and shape.

| Compound | Potency | activity change, negative = growth inhibition |
| --- | --- | --- |
| Cc1ccc(CCNC(=O)c2nnc(CS(=O)(=O)c3ccccc3)o2)cc1 | inconclusive [inhibitor, partial curve, poor fit] |  |
| COc1ccccc1CNC(=O)c1ccccc1OCc1ccc(F)cc1 | inconclusive [inhibitor, single point] |  |
| Cc1ccc(C(=O)N[C@H](C(=O)NC2CCCCC2)C(C)C)cc1 | inactive |  |
| CCN1CCN(c2ccc(S(=O)(=O)N3CCCCC3)cc2NC(=O)c2cccc(C)c2[N+](=O)[O-])CC1 | inconclusive [inhibitor, single point] |  |
| Cc1ccc(C)c(Nc2nc3c(S(=O)(=O)c4ccccc4)nnn3c3ccccc23)c1 |  | inconclusive: -31.2% [inhibitor] |
| O=C(Nc1cccc(Br)c1)c1ccccc1-c1ccccc1 | inconclusive [inhibitor, single point] |  |
| O=C(NC(=O)N1CCN(c2cccc(Cl)c2)CC1)c1ccccc1 | inactive |  |
| OC(CN1CCOCC1)Cn1c2ccccc2c2ccccc21 (stereo not given) | inconclusive [inhibitor, single point] |  |
| Cc1nn(Cc2ccccc2)c(C)c1NC(=O)CSc1nc2c(c(C(F)(F)F)n1)CCc1ccccc1-2 | inconclusive [inhibitor, single point] |  |
| Cc1ccc(C(=O)CC(C(=O)O)c2cn(CCC#N)c3ccccc23)cc1 (stereo not given) | inactive |  |
| O=C(COc1ccc(Br)cc1CO)Nc1ccc(S(=O)(=O)N2CCCCC2)cc1 | inconclusive [inhibitor, single point] |  |
| CC1CCCCC12NC(=O)N(CC(=O)OCC(=O)Nc1ccc(F)cc1[N+](=O)[O-])C2=O (stereo not given) | inactive |  |
| CCN(CC(=O)Nc1c(F)cccc1F)C(=O)CCc1nc2ccccc2c(=O)[nH]1 | inactive |  |
| CN1CCN(c2oc(/C=C/c3ccc(F)cc3)nc2C#N)CC1 | inconclusive [inhibitor, partial curve] |  |
| FC(F)(F)C(Cl)Br (stereo not given) | inactive |  |
| CC(C)S(=O)(=O)c1oc(-c2ccc(F)cc2)nc1S(=O)(=O)c1ccccc1 | active: 0.461 µM |  |
| CCOC(=O)C1(Cc2ccccc2)CCCCCC1=O (stereo not given) | inconclusive [inhibitor, partial curve] |  |
| Cc1cccc(-n2c(SCc3nc(-c4ccccc4C)no3)nnc2-c2ccccc2)c1 | inconclusive [inhibitor, single point] |  |
| COc1ccc(C)cc1S(=O)(=O)N1CCC2(CC1)OCCN2S(=O)(=O)c1cccs1 | inconclusive [inhibitor, single point] |  |
| CN(C(=O)COC(=O)Cn1cnc2ccccc21)C1CCCCC1 | inactive |  |
| ON1C2CCCCC2N(O)C1c1c(F)c(F)c(F)c(F)c1F (stereo not given) | inconclusive [inhibitor, single point] |  |
| CC1CCCC(NC(=O)C2CCN(S(=O)(=O)N3CCC4(CC3)OCCO4)CC2)C1C (stereo not given) | inconclusive [inhibitor, partial curve] |  |
| O=C(C[C@@H]1C/C=C\C[C@@H](Cc2ccc(F)cc2)C(=O)OCCNC1=O)N[C@H](CO)Cc1ccccc1 | active: 18.4 µM |  |

| Compound | Potency | activity change, negative = growth inhibition |
| --- | --- | --- |
| COc1ccc(NC(=O)N(CCC(C)C)C(C)c2ccccn2)c(OC)c1 (stereo not given) | inconclusive [inhibitor, single point] |  |
| CSc1sc(C(=O)NNC(C)=O)c2c1C=CCC2 | inconclusive [inhibitor, single point] |  |
| CC(C)Cn1c(N)c(C(=O)CSc2ncnc3sc4c(c23)CCCC4)c(=O)n(C)c1=O | inactive |  |
| CC(C)[C@H](NC(=O)OCc1ccccc1)C(=O)OCC(=O)N1C(C)CCCC1C (stereo not given in full) | inactive |  |
| COc1nc2ccc(C)cc2cc1-c1noc(-c2cccnc2)n1 | inconclusive [inhibitor, partial curve] |  |
| COc1ccc(C2=NO[C@@H]3C(=O)N(Cc4ccccc4)C(=O)[C@H]23)c(OC)c1 | inactive |  |
| COc1cc(NC(=O)c2nn(-c3ccc(C)cc3)c(=O)c3c2c2ccccc2n3C)cc(OC)c1OC | inactive |  |
| CCOc1ccc(-n2nc(CO)c(C(=O)NCc3cccnc3)n2)cc1 | inconclusive [inhibitor, single point] |  |
| COc1ccc(CCN2CC(C(=O)NCc3cccc4[nH]ccc34)CCC2=O)cc1 (stereo not given) | inconclusive [inhibitor, single point] |  |
| Cc1cc(C(=O)CSc2n[nH]c(N)n2)c(C)n1-c1cc(F)ccc1F |  | inconclusive: -33% [inhibitor] |
| COc1cc(NC(=O)Cc2nn(C)c(=O)c3ccccc23)cc(OC)c1OC | inconclusive [inhibitor, single point] |  |
| CCCOc1ccc(F)cc1-c1cc(C(=O)NCCOC)[nH]n1 | inactive |  |
| c1ccc2c(C(c3nnnn3-c3ccc4c(c3)OCCO4)N3CCOCC3)ccnc2c1 (stereo not given) | inactive |  |
| C[C@]12c3[nH]c4cc(-c5ccco5)ccc4c3CCN1C(=O)[C@@H](CC(=O)NCCc1ccccn1)C[C@@H]2C(=O)N1CCOCC1 | inconclusive [inhibitor, single point] |  |
| CC1(C(=O)NCc2ccccc2)CN(S(C)(=O)=O)CC(=O)N1CC(F)(F)F (stereo not given) | inactive |  |
| Cc1ccc(NC(=O)CC2SC3=NCCN3C2=O)cc1 (stereo not given) | inconclusive [inhibitor, single point] |  |
| O=C(NCCc1ccncc1)Nc1ccccc1 | inconclusive [inhibitor, partial curve, poor fit] |  |
| COc1cccc(N2CCN(C(=O)c3cc4c(=O)n(Cc5ccccc5)ccc4nc3C)CC2)c1 | inconclusive [inhibitor, single point] |  |
| CCN(CC)S(=O)(=O)c1ccc(N2CCOCC2)c(NC(=O)c2ccc(NC(C)=O)cc2)c1 | inactive |  |
| COc1ccc(CCNC(=O)CN(c2ccccc2)S(C)(=O)=O)cc1OC | inactive |  |
| COc1ccc(OC)c(S(=O)(=O)NC2CC(=O)N(c3cccc(F)c3)C2)c1 (stereo not given) | inconclusive [inhibitor, single point] |  |
| CCOc1ccc(C(=O)N(CN2CCCC2=O)c2ccc(C)cc2)cc1 | active: 23.1 µM |  |
